Results: PubChem BioAssay AID1768 (National Center for Advancing Translational Sciences (NCATS), 2009)
“And” between values parts separate entries of the source, which are not always exact repeats. Equal values may be shown once. Hit rate of the full screen: of about 270,000 compounds, about 620 (0.23%) were called active. The inconclusive results got no clear call from the source; some entries with a clear call stand among them for comparison. Calls follow the shape of the dose curve; as a rule, active = well fitted inhibition curve with a large enough effect in the polarisation, with a control signal flat (not every such curve was filed as active); inconclusive = small, poorly fitted or top-dose-only effect, or effect the other way, or a change in a side signal; inactive = no such curve, though single readings can be large or run the other way; the % refers to the polarisation. A potency beside an inconclusive call is a rough fit, not a confirmed value. A note “side channel” means that the fit belongs to a control or component signal, not to the main read-out.
For FP activity change, negative = inhibition in this document: % of control where 0% means no effect.
Potency is read from the fitted curve at half-maximal effect; tags tell the direction and shape of the fitted curve or compound fluorescence and quenching.

These compounds were tested against Menin (Homo sapiens) (UniProt O00255) (assay: qHTS Assay for Inhibitors Targeting the Menin-MLL Interaction in MLL Related Leukemias: Competition With Texas Red Labeled MLL-derived Mutant Peptide). Settings: fluorescence polarization; FP activity change, negative = inhibition: at 61.6 µM (top of the series).
UniProt O00255, sequence (O00255 whole entry, looked up): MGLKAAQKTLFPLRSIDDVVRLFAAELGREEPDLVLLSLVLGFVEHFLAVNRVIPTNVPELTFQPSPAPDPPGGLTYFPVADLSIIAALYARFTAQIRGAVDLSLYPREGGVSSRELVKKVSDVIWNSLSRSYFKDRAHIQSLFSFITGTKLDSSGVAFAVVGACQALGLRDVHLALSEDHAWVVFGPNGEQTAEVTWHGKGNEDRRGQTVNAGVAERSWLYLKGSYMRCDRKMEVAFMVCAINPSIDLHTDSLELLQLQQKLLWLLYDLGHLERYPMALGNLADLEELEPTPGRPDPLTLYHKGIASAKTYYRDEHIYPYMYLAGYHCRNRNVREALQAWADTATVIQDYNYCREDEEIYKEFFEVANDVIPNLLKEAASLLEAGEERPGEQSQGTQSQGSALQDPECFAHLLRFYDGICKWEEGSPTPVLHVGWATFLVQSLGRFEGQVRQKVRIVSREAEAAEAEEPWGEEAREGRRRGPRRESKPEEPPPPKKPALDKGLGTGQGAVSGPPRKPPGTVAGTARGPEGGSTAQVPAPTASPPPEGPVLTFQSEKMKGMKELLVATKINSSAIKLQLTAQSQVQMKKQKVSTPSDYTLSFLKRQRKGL
For `COc1ccc(NC(=O)C2CC(=O)N(C)C(=Nc3ccc4c(c3)OCO4)S2)cc1` (stereo unspecified), the Potency was inconclusive: 15.8 µM [quencher, side channel, partial curve].
In the case of `O=C(Cn1nnc(-c2ccccc2NC(=O)c2ccccc2)n1)Nc1ccc2c(c1)OCCO2`, the Potency is reported as inconclusive: 3.16 µM [quencher, side channel, single point].
With `O=S1(=O)c2ccccc2N=NN1Cc1ccc(Cl)c(Cl)c1` the Potency was inconclusive: 22.4 µM [quencher, side channel, partial curve].
For `Clc1ccc(OC2CCN(Cc3nc(CC4CC4)no3)CC2)cc1`, the Potency was inconclusive: 39.8 µM [inhibitor, single point].
In the case of `Cc1cccc(-n2ncc3c(NCc4ccccc4)ncnc32)c1`, the Potency is reported as inconclusive: 11.2 µM [quencher, side channel, partial curve].
With `O=C(Nc1ccc(-c2nnn(CC(=O)N3CCN(C(=O)c4ccco4)CC3)n2)cc1)c1ccc(F)cc1` the Potency was inconclusive: 39.8 µM [fluorescent, side channel, single point].
In the case of `Cc1ccc(NC(=O)c2cc(S(=O)(=O)N3CCCCC3)c[nH]2)cc1C`, the Potency is reported as inconclusive: 25.1 µM [fluorescent, side channel, single point].
In the case of `O=C1CSC(=S)N1N=C1CCCCCC1`, the Potency is reported as “inactive”.
In the case of `Cc1ccc(Cc2cnc(NC(=O)/C(C#N)=C/c3ccc(-c4ccccc4[N+](=O)[O-])o3)s2)cc1`, the Potency is reported as inconclusive: 11.2 µM [quencher, side channel, partial curve].
In the case of `Cc1cccc(C2=NN(c3ccccc3)[C@@H](C(=O)N3CCOC3=O)[C@@H]2c2ccc([N+](=O)[O-])cc2)c1`, the Potency is reported as inconclusive: 6.31 µM [quencher, side channel, partial curve].
For `Cc1ccnc2c1ccc1ccccc12`, the Potency was “inactive”.
For `OCC1(CCOc2ccccc2)CCN(Cc2cn[nH]c2-c2ccc(F)cc2)CC1`, the Potency was “inactive”.
`C=CCn1c(COc2ccc(Cl)cc2)nnc1SCc1ccc(C#N)cc1` was tested, and the Potency was inconclusive: 15.8 µM [fluorescent, side channel, partial curve].
For `O=[N+]([O-])c1ccc(-c2csc(N/N=C/c3cccnc3)n2)cc1`, the Potency was inconclusive: 7.94 µM [quencher, side channel, partial curve].
In the case of `O=c1[nH]c(=O)n(Cc2ccco2)c2c1C(C(F)(F)F)(C(F)(F)F)N=C(c1ccc(F)cc1)N2`, the Potency is reported as inconclusive: 39.8 µM [fluorescent, side channel, single point].
In the case of `O=C(Nc1cccc(S(=O)(=O)N2CCOCC2)c1)c1ccc(Cl)c([N+](=O)[O-])c1`, the Potency is reported as inconclusive: 17.8 µM [quencher, side channel, partial curve].
`CCOc1cc(C(c2c(C)[nH][nH]c2=O)c2c(C)[nH][nH]c2=O)ccc1OCc1ccc([N+](=O)[O-])cc1` was tested, and the Potency was inconclusive: 31.6 µM [quencher, side channel, single point].
In the case of `CCOc1cc(/C=C2/C(=N)N3C=CSC3=NC2=O)ccc1OCCCOc1ccccc1C`, the Potency is reported as inconclusive: 7.08 µM [quencher, side channel, partial curve].
With `Fc1ccccc1Nc1nc2ccccc2n2nnnc12` the Potency was “inactive”.
With `CCN(CCNC(=O)Nc1ccc(Cl)cc1)c1ccccc1` the Potency was inconclusive: 14.1 µM [quencher, side channel, partial curve].
With `Cc1nc(NC(=O)c2ccccc2)sc1-c1csc(Nc2cccc(Cl)c2)n1` the Potency was inconclusive: 7.08 µM [quencher, side channel, partial curve].
For `COc1ccc(N=C2NN=C(c3c(C)[nH]c4ccccc34)CS2)cc1`, the Potency was inconclusive: 25.1 µM [quencher, side channel, partial curve].
`COc1ccc(OC)c(Nc2nc(NCc3ccco3)c3ccccc3n2)c1` was tested, and the Potency was inconclusive: 15.8 µM [quencher, side channel, partial curve].
`CCc1ccc(NC(=O)Nc2cccs2)cc1` was tested, and the Potency was inconclusive: 20 µM [quencher, side channel, partial curve].
In the case of `N#C/C(=C(/O)COc1cccc2ccccc12)c1nc2ccccc2[nH]1`, the Potency is reported as inconclusive: 31.6 µM [quencher, side channel, single point].
For `COC(=O)C1=C(C)N(Cc2ccccc2)C2=C(C(C)=O)C(c3ccccc3)[C@@](O)(C(=O)OC)C(=O)N2C1c1ccccc1` (stereo partly specified), the FP activity change, negative = inhibition was inactive: -12.5% [at 11.7 µM] and inactive: 1.07% [at 11.7 µM].
In the case of `O=c1cc(CSc2nnc(COc3ccccc3Cl)o2)nc2sccn12`, the Potency is reported as inconclusive: 39.8 µM [quencher, single point].
For `CCc1cccc2c(C(=O)COC(=O)/C=C/c3ccccc3OC)c[nH]c12`, the Potency was inconclusive: 7.94 µM [inhibitor, full curve].
For `N#Cc1c(SCC(=O)Nc2ccc(C(F)(F)F)cc2)sc2c(O)cc(=O)[nH]c12`, the Potency was inconclusive: 12.6 µM [quencher, side channel, partial curve].
In the case of `COC(=O)C(Cc1ccccc1)NS(=O)(=O)c1cc(Br)ccc1Br` (stereo unspecified), the Potency is reported as inconclusive: 28.2 µM [fluorescent, side channel, single point].
`O=C(O)c1ccc(/C=C/c2ccc3cccc(O)c3n2)cc1` was tested, and the Potency was inconclusive: 10 µM [quencher, side channel, partial curve].
With `CC(=O)c1cccc(NC(=S)Nc2ccn(Cc3cccc4ccccc34)n2)c1` the Potency was inconclusive: 10 µM [inhibitor, partial curve].
For `O=C(COC(=O)CC(c1ccccc1)c1ccccc1)NCc1ccccc1`, the Potency was “inactive”.
For `Cc1cccc(N2CCN(Cc3nc(-c4ccccc4Cl)oc3C)CC2)n1`, the Potency was inconclusive: 10 µM [fluorescent, side channel, partial curve].
`CCCCC(=Nc1ccc(N)cc1)C1=C(O)C(C(=O)OC)C(C)(C)CC1=O` (stereo unspecified) was tested, and the Potency was inconclusive: 22.4 µM [inhibitor, partial curve].
For `Oc1ccc(Cl)cc1/C=C/c1ccc2cccc(O)c2n1`, the Potency was inconclusive: 14.1 µM [quencher, side channel, partial curve].
